{"source": "the supplement of paper PMC11417369", "note": "This is one part of the list."}
{"system": "PfSIP2 AP2 domain 1 (GST-tagged)", "test": "gcPBM binding intensity (ln(normalized median fluorescence intensity)); higher = stronger DNA binding", "procedure,_shortened": "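Each value is the highest Masliner-normalised natural-log median intensity across replicate spots of either orientation of a probe. The probes were primer-extended double-stranded 36-bp intergenic genomic sequences on an Agilent 4 × 180k array, alongside negative controls, exposed for 1 h to GST-tagged P. falciparum DNA-binding domains expressed in E. coli. Bound protein was picked up with Alexa488 anti-GST antibody and scanned at 488 nm.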"}
{"sequence": "TTTTCTTTTAATATTTTTAATAATTATATTTTGAAA [XGTACX_negctrl_site495]", "gcPBM binding intensity (ln)": 6.75}
{"sequence": "AAATTACTAATGTGCACACATACTAACGTTTAAATA [CACACA_site3572]", "gcPBM binding intensity (ln)": 9.88}
{"sequence": "AAAAATGTAAAGTGCGTGCACAAAATATTTGGAAAA", "gcPBM binding intensity (ln)": 9.43}
{"sequence": "CACATATAGTTATATGCACACATCTTACACATATAT [CACACA_site3692]", "gcPBM binding intensity (ln)": 7.2}
{"sequence": "TATCTGTATTTATATACACACATATTCTTTTTACAC [CACACA_site4798]", "gcPBM binding intensity (ln)": 7.11}
{"sequence": "AAAATCACAAAACACACACACACAAAAAAAAAAAAA [CACACA_site1443]", "gcPBM binding intensity (ln)": 7}
{"sequence": "GTTTGAAGAACTATAAATGTATAAATAAAAGTTTAG [TGCATGCA_negctrl_site222]", "gcPBM binding intensity (ln)": 6.88}
{"sequence": "ATGGTGCAACATTATGCACACCGTTAAATAACTAAT [CACACA_site9280]", "gcPBM binding intensity (ln)": 11.8}
{"sequence": "AAAAAAGTAAAAAAAGCACACACGAAAAAAAATAAA [CACACA_site2233]", "gcPBM binding intensity (ln)": 6.9}
{"sequence": "CATGGGCAAATATTCTCACACATAAACATAAACATA [CACACA_site4597]", "gcPBM binding intensity (ln)": 7.07}
{"sequence": "GGGAATTATGAAAAAAGTACAGAACAAAAGTAAAAG [XGTACX_site2861]", "gcPBM binding intensity (ln)": 7.17}
{"sequence": "ATATAGTAAAATTATACACACATGAATTTTCCCATG [CACACA_site1770]", "gcPBM binding intensity (ln)": 6.89}
{"sequence": "TACAAAAATGAAAAAAGTACATATCATTTAATATAA [XGTACX_site8066]", "gcPBM binding intensity (ln)": 6.92}
{"sequence": "TTTTTTTTTTTTTTTTGTACTCATAAAAATATATTA [XGTACX_site3458]", "gcPBM binding intensity (ln)": 7.04}
{"sequence": "CATATATATATATATACACACACACCGTCCGTGTTA [CACACA_site8975]", "gcPBM binding intensity (ln)": 7.34}
{"sequence": "ATTACATGATATATCACACACACATATAAATATATA [CACACA_site2830]", "gcPBM binding intensity (ln)": 7.26}
{"sequence": "GAATAAATAAATAAATGTACATATATATTTATTTAT [XGTACX_site243]", "gcPBM binding intensity (ln)": 6.8}
{"sequence": "GTTCGAAGTATAATTTGTACATATAAAATGGTTCCC [XGTACX_site382]", "gcPBM binding intensity (ln)": 6.79}
{"sequence": "ATATGTATTTATATATGTTTGAATTTTTTTTTTTTT [CACACA_negctrl_site5]", "gcPBM binding intensity (ln)": 6.83}
{"sequence": "ATTTGATCAACAAAACGTACACATATTTTCATGTGT [XGTACX_site447]", "gcPBM binding intensity (ln)": 6.98}
{"sequence": "ATTTTTGTGACTAAGACATGCATAAGAGTAAAGAAA [TGCATGCA_site619]", "gcPBM binding intensity (ln)": 7.65}
{"sequence": "ACATATATTATATAACGTACATAACACTATTTCCTT [XGTACX_site6938]", "gcPBM binding intensity (ln)": 7.35}
{"sequence": "TTTTTTTTTTGTAATTGTACTTTTTTAATACTTCTA [XGTACX_site4195]", "gcPBM binding intensity (ln)": 6.93}
{"sequence": "TATACATATATATACACACACATATATATATATATA [CACACA_site4]", "gcPBM binding intensity (ln)": 9.01}
{"sequence": "TATATATATATATTCACACATAAATATATGCACCCA [CACACA_site4263]", "gcPBM binding intensity (ln)": 11.6}
{"sequence": "TAAGTCGCCAAAAGGTGTACACATAATGCATTATCA [XGTACX_site8852]", "gcPBM binding intensity (ln)": 6.91}
{"sequence": "AGTATAGTTATAAATTGTACATATTATTTATTTTAT [XGTACX_site949]", "gcPBM binding intensity (ln)": 6.92}
{"sequence": "TAATATCATTTAGACACACACTCTTACAATCTGTAA [CACACA_site2590]", "gcPBM binding intensity (ln)": 6.84}
{"sequence": "AATCATTTATGGAAAGCATGCTAAATTAGAGTATAC [TGCATGCA_site172]", "gcPBM binding intensity (ln)": 7.03}
{"sequence": "ATCTAAACCTTTTGAGCACACATATATATATATATA [CACACA_site8526]", "gcPBM binding intensity (ln)": 9.68}
{"sequence": "ATGGGGAATAATGAATGTACACAAATAAAAAGTTGG [XGTACX_site4015]", "gcPBM binding intensity (ln)": 7.13}
{"sequence": "TAAAAATAAAAATAACGTACATACATACTTATATAT [XGTACX_site3745]", "gcPBM binding intensity (ln)": 6.89}
{"sequence": "TAATTTTTTTAAAACACACAAATATGTAAATATGTA [CACACA_site7769]", "gcPBM binding intensity (ln)": 6.84}
{"sequence": "GATTTTCATATTTTTTGTACTTACATTTTTCTATAC [XGTACX_site6002]", "gcPBM binding intensity (ln)": 7.36}
{"sequence": "ATAAAATCTTAATCAACAAACAAACAAAAAAAAAAT [CACACA_negctrl_site1161]", "gcPBM binding intensity (ln)": 6.9}
{"sequence": "TATGTGATATATTTATCACACATTATATATATATAT [CACACA_site5103]", "gcPBM binding intensity (ln)": 9.38}
{"sequence": "ATTCATTTTAATATGGGTACATAAAAATAAAAAGAA [XGTACX_site2801]", "gcPBM binding intensity (ln)": 7.45}
{"sequence": "TAATATGAAAAGTGTACACACGCACAGACAAAAAAA [CACACA_site5594]", "gcPBM binding intensity (ln)": 7.33}
{"sequence": "GCATAAATCAGACACACACACATATATAAATATGTA [CACACA_site7187]", "gcPBM binding intensity (ln)": 7.13}
{"sequence": "AATATTTAATTCAACACACATACATATTTATTAAAA [CACACA_site2342]", "gcPBM binding intensity (ln)": 7.15}
{"sequence": "TACATTTTTATTTTTACACACATATTTATTTATATA [CACACA_site6609]", "gcPBM binding intensity (ln)": 7.21}
{"sequence": "TATGATGATGAATAACGTACAAAAAAATTAATCACC [XGTACX_site6794]", "gcPBM binding intensity (ln)": 7.4}
{"sequence": "ATAAATATATGGTTTCATTATATTAAATTCAATTTA [CACACA_negctrl_site213]", "gcPBM binding intensity (ln)": 6.75}
{"sequence": "TGTTTATTTTTTTTATGTACTTATTTTTTATTGCAT [XGTACX_site719]", "gcPBM binding intensity (ln)": 7.61}
{"sequence": "AACTTATTAAGCCCTCCACATTTCTCTACTACAACT [CACACA_negctrl_site1552]", "gcPBM binding intensity (ln)": 6.95}
{"sequence": "TCTATTTTTCTAATTTGTACATAGCTTTGAGTTAGT [XGTACX_site8977]", "gcPBM binding intensity (ln)": 7.05}
{"sequence": "AGATAAAATATATACACACACATAAATACGTACAAA [CACACA_site1086]", "gcPBM binding intensity (ln)": 7.36}
{"sequence": "AACTTCTTTTTTATAACACACAAAATATATATACAA [CACACA_site282]", "gcPBM binding intensity (ln)": 7.37}
{"sequence": "AATAAATAAATAAGTACACACATATATATATATATA [CACACA_site284]", "gcPBM binding intensity (ln)": 9}
{"sequence": "GGCATACACAGACACACACACACACCCACATATATA [CACACA_site591]", "gcPBM binding intensity (ln)": 7.55}
{"sequence": "TAATTATCACATTGCACACACATTTCCTTTTACATT [CACACA_site3443]", "gcPBM binding intensity (ln)": 7.26}
{"sequence": "AAAAGAATGAAACATAATAAATTACATTAAAATAAT [CACACA_negctrl_site897]", "gcPBM binding intensity (ln)": 6.87}
{"sequence": "ATTTTTTTATTTTGTGCACACACATAAAAATATATA [CACACA_site762]", "gcPBM binding intensity (ln)": 9.99}
{"sequence": "AAAGTTACATTCGACACACACATAACAACTAAATAA [CACACA_site3419]", "gcPBM binding intensity (ln)": 7.2}
{"sequence": "TATTATAATTTTATATGTACACATATATAAATATAT [XGTACX_site4054]", "gcPBM binding intensity (ln)": 6.98}
{"sequence": "TTTTACATATATATATGTACGAAAATGAAAAGGTCA [XGTACX_site5576]", "gcPBM binding intensity (ln)": 7.36}
{"sequence": "TTTATTTATTAATACACACACACACCCCCACAAAAT [CACACA_site240]", "gcPBM binding intensity (ln)": 8.61}
